Assay results: the supplement of paper PMC4967469
By IC50 is meant the dose at which the fit gives 50% viability; where the fit passes the top or lowest dose, that dose stands as a limit. AUC is the area under the same curve over the 256-fold range up to the top dose, as a fraction; values near 1 show little effect. For part of these data: The top dose, if marked as inferred, is not printed in the source and was worked back from the curve model.

How the values were obtained:
Experiment in all cases: Viability of human cancer cell lines after 72 h of drug (GDSC screen)
NVP-BHG712 = compound: Cc1ccc(C(=O)Nc2cccc(C(F)(F)F)c2)cc1Nc1nc(-c2cccnc2)nc2c1cnn2C [NVP-BHG712]; details: top dose 10.24 µM; top dose inferred
Method: (§1)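 Human cancer cell lines in 384-well plates, medium with 10% serum, drug for 72 h over a 256-fold dose range (nine 2-fold or five 4-fold steps up to the top dose). Adherent lines were fixed and stained with the nucleic acid dye Syto60, suspension lines read with resazurin; signal relative to control wells, capped at 0 and 100%. One two-parameter sigmoid per drug and line, fitted in a mixed model over all curves with the slope shared within a line.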

IOX2 = compound: O=C(O)CNC(=O)c1c(O)c2ccccc2n(Cc2ccccc2)c1=O [IOX2]; details: top dose 0.1 µM; top dose inferred
Method: as §1

Bosutinib = compound: COc1cc(Nc2c(C#N)cnc3cc(OCCCN4CCN(C)CC4)c(OC)cc23)c(Cl)cc1Cl [Bosutinib]; details: top dose 2 µM
Method: as §1

Row | Cell Line | AUC (NVP-BHG712) | IC50 (NVP-BHG712) [nM] | AUC (IOX2) | IC50 (IOX2) [nM] | AUC (Bosutinib) | IC50 (Bosutinib) [nM]
1 | DOV13 (ovary, adherent) | 0.979 | > 10200 | 0.946 | > 100 | 0.774 | 912
2 | DU-145 (prostate, adherent) | 0.962 | > 10200 | 0.973 | > 100 | 0.971 | > 2000
3 | EMC-BAC-1 (lung adenocarcinoma, adherent) | 0.822 | 7120 | 0.972 | > 100 | 0.827 | 1460
4 | EMC-BAC-2 (lung adenocarcinoma, adherent) | 0.978 | > 10200 | 0.974 | > 100 | 0.874 | > 2000
5 | ESO26 (oesophagus, adherent) | 0.888 | > 10200 | 0.988 | > 100 | 0.931 | > 2000
6 | ESO51 (oesophagus, semi-adherent) | 0.894 | > 10200 | 0.963 | > 100 | 0.969 | > 2000
7 | FLO-1 (oesophagus, adherent) | 0.919 | > 10200 | 0.884 | > 100 | 0.888 | > 2000
8 | HCT-15 (large intestine, adherent) | 0.95 | > 10200 | 0.984 | > 100 | 0.932 | > 2000
9 | HL-60 (acute myeloid leukaemia, suspension) | 0.624 | 1360 | 0.989 | > 100 | 0.891 | 1910
10 | HOP-62 (lung adenocarcinoma, adherent) | 0.906 | > 10200 | 0.964 | > 100 | 0.959 | > 2000
11 | HT-29 (large intestine, adherent) | 0.772 | 3950 | 0.986 | > 100 | 0.939 | > 2000
12 | HT-1080 (fibrosarcoma, adherent) | 0.96 | > 10200 | 0.988 | > 100 | 0.736 | 541
13 | Hey (ovary, adherent) | 0.734 | 2830 | 0.913 | > 100 | 0.627 | 274
14 | JHOS-2 (ovary, adherent) | 0.908 | > 10200 | 0.971 | > 100 | 0.848 | 1870
15 | JHOS-3 (ovary, adherent) | 0.937 | > 10200 | 0.975 | > 100 | 0.983 | > 2000
16 | KMS-11 (myeloma, suspension) | 0.867 | 7090 | 0.988 | > 100 | 0.988 | > 2000
17 | KYAE-1 (oesophagus, suspension) | 0.851 | 9160 | 0.98 | > 100 | 0.786 | 961
18 | M14 (melanoma, adherent) | 0.556 | 916 | 0.974 | > 100 | 0.917 | > 2000
19 | MCF7 (breast, adherent) | 0.98 | > 10200 | 0.985 | > 100 | 0.983 | > 2000
20 | MDA-MB-231 (breast, adherent) | 0.907 | > 10200 | 0.983 | > 100 | 0.971 | > 2000

Row | Cell Line | AUC (NVP-BHG712) | IC50 (NVP-BHG712) [nM] | AUC (IOX2) | IC50 (IOX2) [nM] | AUC (Bosutinib) | IC50 (Bosutinib) [nM]
21 | MOLT-4 (lymphoblastic leukaemia, suspension) | 0.832 | 4920 | 0.991 | > 100 | 0.831 | 956
22 | MOLT-13 (T-cell lymphoblastic leukaemia, suspension) | 0.712 | 2330 | 0.983 | > 100 | 0.971 | > 2000
23 | NCC021 (kidney, adherent) | 0.951 | > 10200 | 0.968 | > 100 | 0.976 | > 2000
24 | NCI-H23 (lung adenocarcinoma, adherent) | 0.919 | > 10200 | 0.981 | > 100 | 0.893 | > 2000
25 | NCI-H322M (lung adenocarcinoma, suspension) | 0.974 | > 10200 | 0.975 | > 100 | 0.923 | > 2000
26 | NCI-H460 (large cell lung carcinoma, adherent) | 0.901 | > 10200 | 0.982 | > 100 | 0.703 | 436
27 | OACM5-1 (oesophagus, semi-adherent) | 0.66 | 1900 | 0.985 | > 100 | 0.977 | > 2000
28 | OACp4C (oesophagus, adherent) | 0.684 | 2340 | 0.973 | > 100 | 0.823 | 1510
29 | OC-314 (ovary, adherent) | 0.988 | > 10200 | 0.98 | > 100 | 0.914 | > 2000
30 | OV-7 (ovary, adherent) | 0.763 | 5670 | 0.968 | > 100 | 0.972 | > 2000
31 | OV-17R (ovary, adherent) | 0.86 | > 10200 | 0.973 | > 100 | 0.95 | > 2000
32 | OV-56 (ovary, adherent) | 0.972 | > 10200 | 0.988 | > 100 | 0.972 | > 2000
33 | OVCA420 (ovary, adherent) | 0.948 | > 10200 | 0.979 | > 100 | 0.902 | > 2000
34 | OVCA433 (ovary, adherent) | 0.957 | > 10200 | 0.968 | > 100 | 0.909 | > 2000
35 | OVCAR-8 (ovary, adherent) | 0.902 | > 10200 | 0.98 | > 100 | 0.972 | > 2000
36 | OVK-18 (ovary, adherent) | 0.983 | > 10200 | 0.981 | > 100 | 0.954 | > 2000
37 | PEO1 (ovary, adherent) | 0.911 | > 10200 | 0.98 | > 100 | 0.9 | > 2000
38 | QGP-1 (pancreas, adherent) | 0.764 | 6180 | 0.959 | > 100 | 0.919 | > 2000
39 | RCC-AB (kidney, adherent) | 0.868 | > 10200 | 0.973 | > 100 | 0.92 | > 2000
40 | RCC-ER (kidney, adherent) | 0.986 | > 10200 | 0.889 | > 100 | 0.917 | > 2000

Row | Cell Line | AUC (NVP-BHG712) | IC50 (NVP-BHG712) [nM] | AUC (IOX2) | IC50 (IOX2) [nM] | AUC (Bosutinib) | IC50 (Bosutinib) [nM]
41 | RCC-FG2 (kidney, adherent) | 0.942 | > 10200 | 0.957 | > 100 | 0.867 | > 2000
42 | RCC-JF (kidney, adherent) | 0.958 | > 10200 | 0.966 | > 100 | 0.708 | 524
43 | RCC-JW (kidney, adherent) | 0.944 | > 10200 | 0.973 | > 100 | 0.906 | > 2000
44 | RCC-MF (kidney, adherent) | 0.724 | 3410 | 0.967 | > 100 | 0.878 | > 2000
45 | SF268 (glioma, adherent) | 0.892 | > 10200 | 0.976 | > 100 | 0.865 | > 2000
46 | SF295 (glioma, adherent) | 0.925 | > 10200 | 0.845 | 80.6 | 0.911 | > 2000
47 | SF539 (glioma, adherent) | 0.943 | > 10200 | 0.978 | > 100 | 0.877 | 1670
48 | SK-GT-4 (oesophagus, adherent) | 0.898 | > 10200 | 0.965 | > 100 | 0.81 | 1380
49 | SK-MEL-5 (melanoma, adherent) | 0.983 | > 10200 | 0.981 | > 100 | 0.888 | > 2000
50 | SK-MG-1 (glioma, adherent) | 0.965 | > 10200 | 0.977 | > 100 | 0.926 | > 2000
51 | SK-OV-3 (ovary, adherent) | 0.948 | > 10200 | 0.979 | > 100 | 0.793 | 1190
52 | SNB75 (glioma, adherent) | 0.978 | > 10200 | 0.959 | > 100 | 0.979 | > 2000
53 | SNU-61 (large intestine, adherent) | 0.912 | > 10200 | 0.979 | > 100 | 0.941 | > 2000
54 | SNU-81 (large intestine, adherent) | 0.981 | > 10200 | 0.98 | > 100 | 0.824 | 1770
55 | SNU-407 (large intestine, adherent) | 0.58 | 1100 | 0.981 | > 100 | 0.828 | 1520
56 | SNU-C5 (large intestine, adherent) | 0.934 | > 10200 | 0.97 | > 100 | 0.806 | 1140
57 | SW620 (large intestine, adherent) | 0.904 | > 10200 | 0.989 | > 100 | 0.98 | > 2000
58 | T47D (breast, adherent) | 0.901 | > 10200 | 0.974 | > 100 | 0.966 | > 2000
59 | TE-4 (oesophagus, adherent) | 0.987 | > 10200 | 0.892 | > 100 | 0.839 | 1360
60 | TK10 (kidney, adherent) | 0.864 | > 10200 | 0.971 | > 100 | 0.872 | > 2000
